Measured values published in ChEMBL document CHEMBL4888484, “Replenishing the malaria drug discovery pipeline: Screening and hit evaluation of the MMV Hit Generation Library 1 (HGL1) against asexual blood stage Plasmodium falciparum ,using a nano luciferase reporter read-out” (2022).
The campaign covered roughly 150,000 compounds. About 540 (0.36%) showed an effect of 50% or more. The list shows a part of the results.

tested on: Plasmodium falciparum; assay: Primary screen in NF54 nanoGlo assay, in single point, at 2uM, 72h; a lower Z score goes with more inhibition; format: functional, Erythrocyte; conditions: timepoint 72 hour

Structure (SMILES) | % Inhibition [%] | Z score
O=S(=O)(NCC1(c2cccs2)CC1)C1CC1 | -13 | 1.92
O=C(c1ccon1)N1CCN(c2ncnc3[nH]ccc23)C[C@@H](O)C1 | -7 | 1.13
CC12CN(S(=O)(=O)c3ccc4c(c3)OCCO4)C3(C(=O)OCc4ccccc4)CC1CCC23C (configuration not stated) | 70 | -8.79
COC(=O)c1[nH]c2cc(OC)ccc2c1-n1cnnn1 | 7 | -0.72
O=C1Nc2ccccc2C12OCC1(CO2)CC2C=CC1C2 (configuration not stated) | 6 | -0.87
CN1CCN(C(=O)c2cccc(O)c2)C[C@@]12CCC(=O)N(CC1CC1)CC2 | 10 | -1.32
CCOC(=O)[C@H]1CCCN(Cc2cc(C)ns2)C1 | -5 | 0.59
COCCN1CCN(Cc2cnn(-c3ccccc3)n2)CC1 | -4 | 0.6
CC(C)[C@@H]1CN(CCn2ccnc2)CCCN1Cc1ccc(F)cc1 | -7 | 0.85
C=CCC(CC=C)C(=O)NC1CN(C(C)C)C1 | 28 | -3.17
O=C(Cn1cnnn1)N1CCC(Cc2cc(Cl)ccc2Cl)CC1 | -15 | 2.29
COCc1cccc(Nc2ccnc(C#N)c2)c1 | -12 | 2.08
COc1ccc(Cl)cc1S(=O)(=O)N(C)[C@H]1CS(=O)(=O)C[C@@H]1O | -10 | 1.3
CCCCN(Cc1ccccc1)C(=O)c1cncn1-c1ccc(-c2cc3ccccc3o2)cc1 | -13 | 1.17
COC(=O)[C@](C)(N)c1ccc(Cl)c(Cl)c1 | -17 | 2.17
CC(=O)Nc1ccc(-c2cccnc2O)cc1 | -14 | 1.32
CCN1C[C@H](CN(C)C(=O)NCCc2ccc(OC)c(OC)c2)Oc2ccccc21 | -41 | 4.79
C=CCN([C@@H](C)C(=O)O)S(=O)(=O)c1ccc(C)cc1 | -2 | 0.26
Cc1ncc(CN2CCC(NC(=O)c3cscn3)C(C)C2)s1 (configuration not stated) | -3 | 0.5
CCn1cc(CN2CCN(c3ccc(OC)cc3)C(C)(C)C2)cc1C#N | -4 | 0.44
CC(C)(C)CCN1C(=O)C2(CCN(C(=O)C(C)(C)C)CC2)Nc2ccccc21 | -15 | 1.94
O=C(NCC1(c2ccccc2)CC1)N1CCC1 | -9 | 1.86

Structure (SMILES) | % Inhibition [%] | Z score
CN(CCc1ccccn1)c1ncccc1CNc1ccnc(N)n1 | -9 | 0.96
Cc1ccc(C)c(OCc2cc(C(=O)N3CCC[C@]4(CCCN(C)C4)C3)no2)c1 | -2 | 0.15
Cc1ccsc1CN(C)C1CC(=O)N(C(C)c2cccnc2)C1=O (configuration not stated) | -14 | 2
COCCOc1ncccc1-c1noc([C@@H]2CCCN2C(C)C)n1 | 2 | -0.2
O=C(NC1Cc2ccccc2C1)N1CCC[C@@H]1CN1CCCC1 | -16 | 1.86
COc1ccccc1C(=O)Nc1ccc(OC(=O)Cc2ccccc2Cl)cc1 | 3 | -0.31
Cc1csc(NC(=O)CN2C(c3ccccc3)=C[C@@H](c3ccc(Cl)cc3)n3nnnc32)n1 | -4 | 0.65
COc1cc2c(cc1CN1CCN(c3ccnc(N)n3)CC1)OCCCO2 | -3 | 0.31
CC[C@H](NC(=O)c1ccnnc1C)c1cnn(CC)c1 | -10 | 1.57
CC(NC1(C)CCS(=O)(=O)C1)C(=O)Nc1ccc(N2CCCCC2)cc1 (configuration not stated) | -8 | 1.06
CC(=O)N[C@H]1CCN(Cc2coc(C(C)C)n2)C1 | -4 | 0.78
CCCN(Cc1ccncc1)c1cc([C@H]2CCOC2)nc(C)n1 | -8 | 1.78
Cc1ccccc1NC(=O)c1nnc(C2CCN(C(=O)C3CCCC3)CC2)s1 | -15 | 1.37
CCCN1C(=O)OC(c2ccc(OC)cc2)C1(O)c1ccc(OC)cc1 (configuration not stated) | 33 | -3.7
Cc1c(C(=O)Nc2ccccc2F)cccc1N(C)S(C)(=O)=O | -7 | 1
CCCNS(=O)(=O)c1ccc(-c2cc(C)no2)o1 | -6 | 1.21
CNC(=O)NC(=O)CN(CC1CCC1)CC(F)(F)F | -15 | 1.54
CC(C)c1ncc(CN(C)C(=O)c2onc3c2CCCC3)cn1 | 3 | -0.39
Cc1cc(C)c(C#N)c(N2CCn3nc(CNC(=O)C4CCC4)cc3C2)n1 | -11 | 1.46
CC[C@H](C)N(C/C=C/c1ccco1)Cc1cccnc1 | 3 | -0.38
COc1ccc(NC(=O)N2CCC[C@H]2c2cccs2)nn1 | 34 | -3.86
O=C(CN1CCN(Cc2ccc(F)cc2Cl)C1=O)NC1CCCCCCC1 | 5 | -0.87

Structure (SMILES) | % Inhibition [%] | Z score
Cc1ccc2nnc(CNS(=O)(=O)c3cccc4c3OCC4)n2c1 | 7 | -0.83
C#CCCC1(CCC(=O)N2CCC[C@H](c3nnco3)C2)N=N1 | 8 | -0.95
OC1(C(F)(F)F)CCN(Cc2ccc3c(c2)CCO3)CC1 | -8 | 1.09
O=C(NCc1ccco1)c1cn2c3c(cccc3c1=O)CCC2 | -11 | 1.65
CCC[C@H](C)NC(=O)c1cccnc1O | 1 | -0.17
Cc1cccc(OCC(=O)N2CCN(c3ccc(=O)n(-c4cccc(Cl)c4)n3)CC2)c1 | 16 | -1.85
C[C@]1(C(=O)Nc2ccc(N3CCOCC3)cc2)CC1(Cl)Cl | -4 | 0.74
c1ccc(C2(c3n[nH]c(C4CCC4)n3)CC2)cc1 | -7 | 0.66
O=C(N[C@H]1CC[C@H](Oc2ccccn2)CC1)c1cnccn1 | -7 | 0.74
COc1ccc(C(=O)N2CCC(C)C3CCCCC32)cc1S(=O)(=O)NC1CCCC1 (configuration not stated) | -8 | 1.26
COc1ccccc1C(=O)Nc1ccc(OCc2nc(-c3ccccc3)oc2C)cc1 | -8 | 1.59
Cc1cccc(-c2cc(C(=O)N3CCCC3)ccn2)c1C | -14 | 1.83
C=CCOC[C@@H](O)CN(CCOC)Cc1c(-c2ccccc2)noc1N1CCCCC1 | -5 | 0.57
CCc1nnc(CNC(=O)c2ccc(-c3ccc(C(=O)N(C)C)o3)cc2)s1 | 4 | -0.62
COCCC(=O)N1C[C@H](c2ccc(C)cc2)[C@@H](N(C)C)C1 | -13 | 1.25
Cc1ncc(-c2ccc(C)c(S(=O)(=O)NCc3csc(C)n3)c2)o1 | 0 | -0.03
CS(=O)(=O)N1CCN(C(=O)CCOc2cccc(F)c2)CC1 | -10 | 0.89
CC(C(=O)O)C(=O)N1CCCCC1CCCc1ccccc1 (configuration not stated) | -4 | 0.48
c1ccc(Cc2nnc3n2CCN(Cc2ccnn2C2CCC2)C3)cc1 | -7 | 0.92
O=S(=O)(c1cccc(C(F)(F)F)c1)N1CCc2cc(-c3ccncc3)ccc21 | -2 | 0.3
Cc1ccc(N(C)S(=O)(=O)c2c(-c3cccc(F)c3)csc2C(=O)n2nc(C)cc2C)cc1 | -15 | 1.52
CC(=O)N1N=C(COc2ccc(Cl)cc2C)O[C@@]1(C)c1ccc(Cl)c(Cl)c1 | 1 | -0.13

Structure (SMILES) | % Inhibition [%] | Z score
Cc1cc(NS(=O)(=O)c2ccc(OC(C)C)nc2)c[nH]c1=O | -18 | 1.54
O=C(CN1C(=O)COc2ccc(Cl)cc21)Nc1nnc[nH]1 | -18 | 2.41
CCn1cc(-c2n[nH]cc2C(=O)N2CCN(CC(C)C)C(=O)C2)cn1 | 3 | -0.32
O=C(N[C@H]1CCCCNC1=O)c1cccs1 | -1 | 0.17
Fc1ccc(COc2cccc(NCc3noc(Cc4ccccc4)n3)c2)cc1 | -11 | 2.14
CC(C)(C)OC(=O)N[C@H]1CCCN(CCF)C1 | 30 | -3.36
Cc1n[nH]cc1CN[C@H]1CCCCc2cc(Br)ccc21 | -11 | 1.07
Cn1ncnc1[C@]1(c2ccccc2F)CC1(C)C | 5 | -1.04
CS(=O)(=O)N1CCC[C@@H]1CNc1ncc(Br)cn1 | 2 | -0.19
Cc1ccc(NC(=O)C2C(C)Nc3ncnn3C2c2cccnc2)c(C)c1 (configuration not stated) | -2 | 0.37
Cc1cccn2c(=O)c(C(=O)NCc3ccc(Cl)cc3)c(O)nc12 | -6 | 0.77
CCOc1ncccc1-c1ccc(OC(C)C)nn1 | -7 | 1.24
CC(=O)Nc1c(C)noc1/C=C\c1ccc(C)c(S(=O)(=O)N2CCOCC2)c1 | -2 | 0.36
CNCC(=O)Nc1ccccc1C(F)(F)F | 32 | -4.34
CC1CC(NC(=O)[C@@H]2CCO[C@H]2c2ccc(Cl)c(F)c2)=NO1 (some centres not stated) | -13 | 1.3
CCOCCOc1nc(-c2ccco2)n(-c2cccc(NC(=O)c3ccc(C)c(C(F)(F)F)c3)c2)n1 | 0 | 0.05
FC(F)(F)c1cnc(C2CCN(c3cnccn3)CC2)[nH]1 | 1 | -0.12
CC(C)N(C)S(=O)(=O)Nc1cc(O)ccc1Cl | -5 | 0.84
C[C@]1(C(=O)n2nnc3ccccc32)CC1(Cl)Cl | -13 | 2.55
COC1CS(=O)(=O)CC1NC(=O)Nc1cn(CC(C)C)nc1C(F)F (configuration not stated) | -12 | 1.71
